Reference: PMC4336329 (PLoS ONE, 2015)
Screen size: about 310,000 compounds; about 2,200 (0.71%) showed an effect of 50% or more. Effects have a minus sign here. The list shows a part of the results.

molecular target: human ether-à-go-go-related gene (hERG) potassium channel (human, UniProt Q12809); assay: primary screen, population patch clamp on CHO cells stably expressing hERG
Sequence (Q12809 whole entry, looked up): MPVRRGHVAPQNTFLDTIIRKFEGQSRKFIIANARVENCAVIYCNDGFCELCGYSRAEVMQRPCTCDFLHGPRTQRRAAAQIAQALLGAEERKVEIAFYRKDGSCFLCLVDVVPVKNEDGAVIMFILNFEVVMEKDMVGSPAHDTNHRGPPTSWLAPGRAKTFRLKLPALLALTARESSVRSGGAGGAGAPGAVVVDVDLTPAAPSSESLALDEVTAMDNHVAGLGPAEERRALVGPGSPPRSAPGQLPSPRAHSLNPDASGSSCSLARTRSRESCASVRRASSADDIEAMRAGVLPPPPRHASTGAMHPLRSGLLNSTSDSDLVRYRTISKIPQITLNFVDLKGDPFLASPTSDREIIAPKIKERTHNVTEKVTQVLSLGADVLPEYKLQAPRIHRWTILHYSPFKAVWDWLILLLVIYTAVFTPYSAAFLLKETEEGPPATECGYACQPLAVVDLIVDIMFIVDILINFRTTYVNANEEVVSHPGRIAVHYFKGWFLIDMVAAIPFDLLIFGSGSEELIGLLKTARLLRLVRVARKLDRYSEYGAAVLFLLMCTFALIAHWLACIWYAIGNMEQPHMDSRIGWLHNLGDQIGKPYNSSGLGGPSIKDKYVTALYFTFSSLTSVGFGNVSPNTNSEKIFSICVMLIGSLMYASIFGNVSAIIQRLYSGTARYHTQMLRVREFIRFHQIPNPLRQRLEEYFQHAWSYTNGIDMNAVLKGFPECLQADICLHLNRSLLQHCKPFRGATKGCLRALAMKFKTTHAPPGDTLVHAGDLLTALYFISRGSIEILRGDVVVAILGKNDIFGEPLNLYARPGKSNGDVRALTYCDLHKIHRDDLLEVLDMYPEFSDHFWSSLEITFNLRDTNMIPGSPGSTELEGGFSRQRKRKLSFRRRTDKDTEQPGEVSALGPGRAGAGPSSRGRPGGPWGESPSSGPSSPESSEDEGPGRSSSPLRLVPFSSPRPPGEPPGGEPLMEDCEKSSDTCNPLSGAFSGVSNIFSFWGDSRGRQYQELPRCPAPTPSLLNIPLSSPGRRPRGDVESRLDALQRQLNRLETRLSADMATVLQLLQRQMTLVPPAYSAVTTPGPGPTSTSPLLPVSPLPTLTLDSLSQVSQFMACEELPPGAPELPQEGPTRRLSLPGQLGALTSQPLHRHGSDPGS

Compound | hERG current change (%, negative = inhibition) at 1uM
Cn1c(SCC(=O)N2CCCCCC2)nc2c([nH]c3ccccc32)c1=O | 7.71%
COc1cccc(CN(c2ccc3c(c2)CCC3)S(=O)(=O)c2ccc(-n3cnnn3)c(OC)c2)c1 | 18.8%
COc1ccccc1-c1cn[nH]c1-c1ccc(OCC(=O)NN)cc1O | 3.23%
CC(C)N(C(C)C)S(=O)(=O)c1ccc(Cl)nc1 | 15.1%
COc1ccc(CCN(C)Cc2ccc(OC)c(OCc3ccccc3)c2)cc1OC | -77%
CC(=O)C[C@H]1c2cc(F)ccc2S(=O)(=O)N1c1ccc(N(C)C)cc1 | 8.54%
CCNc1nc(NC(C)C)nc(N(n2cnnc2)S(=O)(=O)c2ccc(C)cc2)n1 | 1.58%
COC(=O)/C(C#N)=C/c1c(N2CCN(C)CC2)nc2ccccn2c1=O | 11.2%
CCCOC(=O)CCc1n[nH]c(=O)[nH]c1=O | 5.57%
CC(C)c1ccc(O)c(NC(=S)NC(=O)CCc2ccccc2)c1 | 11.6%
O=C(C(c1ccccc1)c1ccccc1)N1CCN(c2ccccn2)CC1 | 12.2%
CC(C)(CNC(=O)c1cccc(NS(=O)(=O)c2ccc(Br)cc2)c1)N1CCOCC1 | 5.76%
COc1ccc(CCNC(=O)C(=O)NCC2CCCN2S(=O)(=O)c2cc(C)ccc2C)cc1 (stereo not drawn) | 4.92%
COc1cccc(-c2nc(CS(=O)(=O)CC(=O)NCCCN3C(C)CCCC3C)c(C)o2)c1 (stereo not drawn) | 8.41%
O=C(CSc1nnc(-c2ccncc2)n1Cc1ccco1)Nc1nccs1 | 4.34%
CC(=O)Nc1ccc(Nc2cc(C(C)C)nc3c(-c4ccccc4)c(C)nn23)cc1 | 13.2%
O=C(CSc1nnc(CCCN2C(=O)c3cccc4cccc(c34)C2=O)n1-c1ccccc1)N1CCCCC1 | -11.6%
O=C(c1cc(-c2cccc(Cl)c2)on1)N1CCN(c2ccccc2)CC1 | 9.17%
CC1CCN(S(=O)(=O)c2cccc(-c3cn4cc(Cl)ccc4n3)c2)CC1 | 14.5%
COc1ccc(OC)c(N2Cc3ccccc3C2)c1 | 10.7%
COc1ccc(C(=O)N2CCCN(C)CC2)c(OC)c1 | 11%
O=C(Nc1nc2cc3c(cc2s1)OCCO3)c1ccc([N+](=O)[O-])o1 | 14.3%

Compound | hERG current change (%, negative = inhibition) at 1uM
O=C(N=C1SC2CS(=O)(=O)CC2N1c1ccc(F)cc1F)C1CC1 (stereo not drawn) | 5.2%
CCN1C(=O)C(C)S/C1=N\S(=O)(=O)c1ccc(Cl)s1 (stereo not drawn) | 13.3%
Cc1cccc(N(CC(=O)NCCSCc2ccccc2)S(C)(=O)=O)c1C | 7.74%
COc1cccc(-c2sc3ccc(OC)cc3c2C#CCCO)c1 | 12.5%
COc1ccccc1N1CCN(C2CCCN(C(=O)CC(F)(F)F)C2)CC1 (stereo not drawn) | 14.5%
COCCCN1C(=O)c2ccc(C(=O)OCC(=O)NCc3ccccc3OC)cc2C1=O | 3.07%
O=C(N/N=C/c1c(O)n(CCc2ccccc2)c(=O)[nH]c1=O)c1ccccc1 | 6.33%
COc1cccc(NS(=O)(=O)c2ccc(Br)s2)c1 | 11.8%
Cc1nc(NC(=O)CSc2nnc(-c3ccc4c(c3)OCO4)o2)c(Cl)cc1Cl | 10.5%
NC(=O)C1CCN(C(=O)c2cc3n(n2)C(C(F)(F)F)CC(c2ccco2)N3)CC1 (stereo not drawn) | 15.2%
O=C(Nc1cccc(Cl)c1)Nc1ccccc1-n1ccnc1 | -5.6%
Cc1cc(C)c(-n2c(SCCS(=O)(=O)c3ccc(F)cc3)n[nH]c2=O)c(C)c1 | 13.1%
O=C1N(c2ccc(Cl)cc2)C(c2cccnc2)N2CCCN12 (stereo not drawn) | 6.95%
CC(C)NCCOCCOc1ccc(Cl)cc1Br.O=C(O)C(=O)O | -10.4%
O=C(CCN1C(=O)c2ccccc2C1=O)NCc1ccncc1 | 10.6%
CCC(C)Nc1nc(N)c([N+](=O)[O-])c(N2CCCCCC2)n1 (stereo not drawn) | 12%
Cn1c2ccc(F)cc2c2ncn(CC3CCCO3)c(=O)c21 (stereo not drawn) | 12%
CCOC(=O)c1ccc(NC(=O)C(C)Sc2nc(O)c(-c3ccccc3)c(=O)[nH]2)cc1 (stereo not drawn) | 13%
CCOc1ccc(C(=O)NCC(=O)N2CCN(C/C=C/c3ccccc3)CC2)cc1OCC | -1.35%
CC1=Nc2ccccc2N=C(NC(=O)CN2CCN(c3ccc(F)cc3)CC2)C1c1ccccc1 (stereo not drawn) | 14.2%
Cc1ccc(NC(=O)CN2CCN(Cc3ccccc3)CC2)c(Br)c1.Cl | -36.7%
CN(Cc1c[nH]c2ccccc12)C1CCCCC1 | 4.04%

Compound | hERG current change (%, negative = inhibition) at 1uM
Cc1cccc(NC(=S)NNC(=O)c2cccc([N+](=O)[O-])c2)c1 | 9.77%
COc1ccc(N2CC(NC(=O)c3ccc4ccccc4c3)CC2=O)cc1OC (stereo not drawn) | -16.2%
Cc1ccc(-c2cc(C(=O)N3CCCc4ccccc43)no2)cc1 | -75.5%
CCOC(=O)c1sc(=NC(=O)COc2ccccc2)n(C)c1C | 13.6%
O=C(O)CCCn1cc(NC(=O)c2sc3ccccc3c2Cl)cn1 | 25.7%
Fc1ccccc1C1CCN(Cc2nc(COc3ccccc3)no2)C1 (stereo not drawn) | 11.3%
Cc1nn(C)c(C)c1/C=N/NC(=O)CCn1nc(C)c([N+](=O)[O-])c1C | 10.3%
CC(C#N)Sc1nnc(Nc2ccccc2)s1 (stereo not drawn) | 2.64%
CC(NC(=O)C1CC=CCC1C(=O)O)C1CC2CCC1C2 (stereo not drawn) | 16.7%
COc1ccc(OCCN2CCN(C(=O)c3ccc(OC(F)F)c(OC)c3)CC2)cc1 | -62.6%
Cc1ccc(C)c(Nc2cc(C)nc3ccccc23)c1 | -1.3%
CCOc1ccc(NC(=O)Cn2ncc3ccccc32)cc1 | 10.9%
O=C(Nc1ccc(C2=NCCN2)cc1)c1ccc(C(=O)Nc2ccc(C3=NCCN3)cc2)c(Cl)c1 | 2.4%
NC(=O)c1cc2n(n1)C(C(F)(F)F)CC(c1ccco1)N2 (stereo not drawn) | 1.11%
CCOC(=O)c1cnc2c(OC)cccc2c1Nc1ccc2c(c1)OCCO2 | -3.26%
OCCC1CN(Cc2ccc3ncccc3c2)CCN1Cc1ccccc1 (stereo not drawn) | 9.68%
COCCCN(Cc1ccco1)C(=O)Cn1ncc2c([nH]c3ccccc32)c1=O | -5.46%
COc1ccc(Nc2ccc(S(=O)(=O)N3CCCCC3)cc2[N+](=O)[O-])cc1 | 13.1%
Cc1ccc(-n2ncc3c(SCc4ccccc4)ncnc32)cc1 | 4.49%
COCCn1c(SCC(=O)Nc2cccnc2Cl)nc2cc(Cl)ccc2c1=O | -11.2%
COC(=O)c1ccc(/C=N\NC(=O)c2c(C)nc3ccc(Cl)cn23)cc1 | 17.1%
CC1=NN(C(N)=S)C(=O)C1N=Nc1c(C)cc(C)cc1C (stereo not drawn) | 13.9%

Compound | hERG current change (%, negative = inhibition) at 1uM
Cc1cccc(N2CCN(C(=O)c3cccc(N4C(=O)C5C6C=CC(C6)C5C4=O)c3)CC2)c1C (stereo not drawn) | 20.4%
O=C(O)Cn1nc2ccccc2n1 | 18.7%
COc1ccc(C(=O)N/N=C/c2cc(Br)ccc2O)cc1OC | 14.7%
CC(NC(=O)COC(=O)/C=C/c1ccc([N+](=O)[O-])cc1)c1ccccc1 (stereo not drawn) | -7.15%
Cc1oc2ccc(OC(=O)N(C)C)cc2c1C(=O)OC(C)C | 10.3%
CC(C)CN(CC(C)C)CC(O)COc1ccccc1Br.Cl (stereo not drawn) | 10.3%
O=C(NC1CCCCC1)C(c1ccc(F)cc1)N(Cc1cccs1)C(=O)CN1C(=O)c2ccccc2S1(=O)=O (stereo not drawn) | 8.39%
CCOC(=O)C1C(c2ccc(O)c(OC)c2)NC(=S)NC1(O)C(F)(F)F (stereo not drawn) | 3.29%
O=C(O)C1CCN(c2nc(-c3ccccc3)c3cc(Br)ccc3n2)CC1 | 10.8%
COc1ccc(/C=C2\SC(=S)N(CCCC(=O)Nc3ccc(O)cc3)C2=O)cc1 | 7.57%
COc1cccc(NS(=O)(=O)c2cc(C)ccc2OC)c1 | 10.9%
O=C1CSc2ccc(S(=O)(=O)NCc3ccc(F)cc3)cc2N1 | 5.12%
O=S(=O)(/N=C(/Nc1cccc2ccccc12)c1ccccc1)c1ccc(F)cc1 | 19.9%
FC(F)Sc1ccc(NC(=S)NCC2CCCCC2)cc1 | 9.18%
COc1ccc(NC(=O)c2oc3ccccc3c2NC(=O)C2CC2)c(OC)c1 | 7.93%
COc1ccccc1Oc1ncnc2c1oc1ccccc12 | 11.6%
O=C(NCN1CCOCC1)c1cnccn1 | 9.95%
O=c1[nH]c(C2CCCN(S(=O)(=O)c3cccc(Cl)c3)C2)nc2c1nnn2Cc1ccc2c(c1)OCCO2 (stereo not drawn) | 15.9%
FCCCOc1ccc(-c2ccnc3ncnn23)cc1 | 14.7%
Cc1cc2c(=O)n(CC(=O)NCC(=O)N3CCN(Cc4ccccc4)CC3)cnc2s1 | 14.1%
COc1cccc(-c2ccc(NC(=O)C3CCCN(Cc4cnn(C)c4)C3)cc2)c1 (stereo not drawn) | -0.218%
